Results: the supplement of paper PMC3334620
The full ranking holds about 33,000 sequences; the median of “E-score (-0.5 to 0.5)” is about -0.04, and the highest 2% start at about 0.36. The list shows a part of the results.

These sequences were tested against T1, Hmlalpha2 (UniProt P0CY09) (assay: PBM E-score (8-mer binding enrichment) (E-score (-0.5 to 0.5)); higher = stronger / more preferred TF binding; most listed sequences are background and not binding sites). Details: protein concentration: 200 nM; construct: GST-full length.
T1 sequence: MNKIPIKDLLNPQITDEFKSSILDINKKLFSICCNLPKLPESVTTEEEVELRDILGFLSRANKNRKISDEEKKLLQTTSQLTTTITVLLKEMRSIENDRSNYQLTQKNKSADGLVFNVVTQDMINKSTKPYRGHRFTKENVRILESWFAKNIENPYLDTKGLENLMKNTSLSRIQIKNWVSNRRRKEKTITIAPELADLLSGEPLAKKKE
Method: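 Universal 'all 10-mer' protein binding microarrays (Agilent AMADID 015681) probed with GST-tagged S. cerevisiae TFs (full-length or DBD) made by in vitro transcription/translation (PURExpress), about 100-200 nM. Bound TF was detected with fluorescent anti-GST. Each ungapped 8-mer (which stands for itself and its reverse complement) is scored by the PBM enrichment score (E-score), a modified Wilcoxon-Mann-Whitney statistic from -0.5 to +0.5, computed with the Universal PBM Analysis Suite. Scale: above 0.35 generally sequence-specific binding.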

| Sequence | PBM E-score |
| --- | --- |
| ATTGATGA | -0.0591 |
| CGGCCCAA | -0.356 |
| CGGAACCA | -0.0561 |
| GACTAGCC | -0.315 |
| TTAGTAAA | 0.319 |
| ACCGCGAG | -0.0948 |
| ACGATGGA | 0.039 |
| AGATGCCG | -0.21 |
| AAGTAGGC | -0.0798 |
| AGGGGATG | -0.188 |
| ACCCACAT | -0.0281 |
| CCACAAAG | -0.112 |
| CCGAATAA | 0.0885 |
| ACAGAAGA | 0.073 |
| GTACGCTA | -0.0324 |
| ACGGTGTG | 0.00286 |
| ACATTTTG | 0.14 |
| TCCTCAGA | -0.213 |
| CGCGCAAG | 0.097 |
| CAACAACC | 0.163 |
| CGAGCCAC | -0.213 |
| CCTCTGAC | -0.189 |
| AAGATCAT | 0.195 |
| CTAAGTTA | 0.158 |
| CCGCTGCA | -0.126 |

| Sequence | PBM E-score |
| --- | --- |
| ATCAGGAA | -0.245 |
| ATAGACGC | 0.197 |
| CTGTGACA | 0.0176 |
| AACAGAGC | 0.00102 |
| CTGCGAAG | -0.144 |
| AACATCTG | 0.128 |
| GGCACCCC | -0.207 |
| AGCCGAGA | -0.251 |
| AGACACGG | 0.228 |
| CTGTCTTA | 0.0838 |
| CGACTAGC | -0.121 |
| ATGCCCCA | -0.366 |
| CAAGGAGG | -0.0485 |
| TCGGGAGA | -0.175 |
| AATCTTCT | -0.0364 |
| AGAATCCG | -0.106 |
| GAGCGTGC | -0.0403 |
| ATATTTGC | 0.121 |
| AGCAGATC | 0.109 |
| ATCGCAGG | -0.0866 |
| GGATGTAA | 0.397 |
| ATTGAGAC | -0.0756 |
| CACTTTAG | -0.227 |
| GGATTCTA | -0.0376 |
| ATCTGTTC | -0.117 |

| Sequence | PBM E-score |
| --- | --- |
| CTCGTAGC | -0.173 |
| CGGGCGAG | -0.184 |
| ATCGCCTG | -0.156 |
| AAATAACG | 0.231 |
| GCAGAGGC | -0.201 |
| AGACGCAA | -0.0532 |
| GGGCAGAA | 0.0375 |
| CCCTTACG | -0.0873 |
| CGTCTTAC | -0.0226 |
| CCGAAATC | -0.113 |
| CATATCTA | 0.0761 |
| TGTGCAAA | 0.223 |
| AGCGGGTA | 0.0406 |
| GGCTCAAC | -0.0255 |
| CATGCCCC | -0.0941 |
| TGTTGGAA | 0.256 |
| AACACGCA | 0.412 |
| CGTCTCCC | -0.229 |
| GCATGCGC | 0.0917 |
| AGACTTGA | 0.0747 |
| AGTACAAT | 0.25 |
| ACTACAGC | -0.0472 |
| CTGTCCAC | -0.0348 |
| CCACGAGG | -0.0969 |
| AAATATAA | 0.225 |

| Sequence | PBM E-score |
| --- | --- |
| AAACTGTA | 0.241 |
| GGTGGGGA | -0.0925 |
| ACAATTTG | 0.0868 |
| AGTGTAAT | 0.357 |
| AAACGGCG | -0.106 |
| CACTAAAC | 0.161 |
| CCGGGCGA | -0.0675 |
| AGCGTCGC | -0.0785 |
| AAACCGAG | -0.204 |
| ATGACACG | 0.404 |
| AAGCAGGG | -0.116 |
| GCATAATA | 0.223 |
| AGGACGGA | -0.372 |
| AGGGCAAA | -0.106 |
| GCTGCAAC | -0.139 |
| GCGCAAAC | -0.0215 |
| ATGTGTTC | 0.233 |
| AGCGAGGA | -0.159 |
| CATACGGA | -0.1 |
| CATGAAAG | 0.00206 |
| CCGGGCGC | -0.371 |
| CACATGAG | 0.0365 |
| ATGCCCGC | -0.223 |
| CGAGCGCA | 0.0619 |
| CAACTACC | -0.0448 |

| Sequence | PBM E-score |
| --- | --- |
| ACTTAAAC | 0.167 |
| TAGACGCA | 0.0971 |
| GCCAGCAC | -0.176 |
| TCGACGAA | 0.0363 |
| CGCACCCG | -0.0297 |
| TCCGGAAA | -0.0989 |
| GTTAGGAA | 0.0561 |
| CAGCAAAC | 0.0641 |
| CCCTACTA | -0.0755 |
| GATATGTA | 0.345 |
| TTAGCGAA | 0.0147 |
| CATTGAAG | 0.0316 |
| CGGCTCGC | -0.0476 |
| ACTTTTAT | -0.0402 |
| TAGCGTGA | -0.0325 |
| TGGGTACA | 0.0761 |
| AATAAGAT | 0.147 |
| GGGTAATA | 0.193 |
| ATCATTTG | -0.0104 |
| CGATACGA | -0.112 |
| ACAAGCAT | 0.247 |
| GAAGTAGA | -0.0167 |
| ATGCTGAC | 0.113 |
| TAAACGGA | 0.0215 |
| TCACTGCA | 0.148 |

| Sequence | PBM E-score |
| --- | --- |
| CGATGCTC | -0.277 |
| AGCCACAG | -0.242 |
| CCCCTACC | -0.151 |
| ACAAAAAG | 0.00072 |
| CAATTCCA | -0.2 |
| CGTTATGC | -0.0512 |
| CTTACTGA | -0.0317 |
| CCCGATAG | -0.399 |
| ATCTACAC | 0.45 |
| CGGCCTAC | -0.0673 |
| ACTTTGTA | 0.271 |
| GTGCACAA | -0.0722 |
| ATTGTCTG | 0.0832 |
| AGTACCGC | -0.0161 |
| ATGGTCGG | -0.269 |
| CAGAAAGC | 0.0828 |
| AAGTCCGT | 0.00455 |
| ACGTCGAA | 0.0747 |
| GGTTTAAA | 0.249 |
| CAATATAG | 0.0174 |
| AGGCATAA | -0.23 |
| CTGCACTA | -0.07 |
| ACTAGGAC | -0.164 |
| AGATCTTG | 0.0404 |
| AACTCTGA | 0.0712 |

| Sequence | PBM E-score |
| --- | --- |
| AACCAGAA | 0.163 |
| GAAAGTGA | -0.067 |
| CTGCTAGC | -0.137 |
| CTGAATTA | 0.0283 |
| AAATTACT | 0.209 |
| AGCGCAAT | 0.0383 |
| CCGACCAC | -0.086 |
| TAGTAGGA | -0.261 |
| ACTAACAA | 0.253 |
| TCCAACAA | 0.264 |
| AAGGACGA | -0.138 |
| CAATCTCG | -0.0917 |
| GACGTATC | -0.059 |
| CGACGCCG | -0.106 |
| AAAAGAGG | -0.355 |
| GAATTCGC | -0.105 |
| ATGCTCCA | -0.178 |
| GCTTTGAC | 0.074 |
| AGGTATAC | 0.196 |
| ACCGACAC | -0.0222 |
| ACCGGGCC | -0.269 |
| AGATGACT | -0.171 |
